In publication PMC12820563, “FoxP3 forms a head-to-head dimer in vivo and stabilizes its multimerization on adjacent microsatellites”:
Some of the results follow.

Biological target: T1, MBP-FoxP1dN (Mus musculus, UniProt P58462 326-579)
T1 sequence: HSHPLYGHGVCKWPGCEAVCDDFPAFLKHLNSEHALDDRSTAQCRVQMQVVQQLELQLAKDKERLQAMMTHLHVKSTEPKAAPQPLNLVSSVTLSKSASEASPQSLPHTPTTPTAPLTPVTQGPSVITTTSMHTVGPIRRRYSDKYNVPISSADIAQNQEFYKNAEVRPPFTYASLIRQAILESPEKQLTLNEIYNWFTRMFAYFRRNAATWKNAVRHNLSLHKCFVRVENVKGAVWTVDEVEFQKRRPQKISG
Test: PD-seq (MBP pull-down with sequencing); 20 mM Tris-HCl pH 7.5, 100 mM NaCl, 1.5 mM MgCl2, 0.4 uM protein, 0.1 uM dsDNA library, 30 min, room temperature, amylose pull-down; high values mean tight binding
Settings: protein: recombinant; tags: His6-MBP; chain copies: 2; dsDNA, one strand shown
Outline: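 Binding is reads-per-million enrichment of pull-down over input, with replicates pooled. It comes from 30 min room-temperature incubation in Tris pH 7.5 buffer with NaCl and MgCl2 of 0.4 µM His6-MBP-tagged, N-terminally truncated mouse FoxP3 or FoxP1 fragment from E. coli with 0.1 µM Klenow-filled degenerate double-stranded DNA library, followed by amylose resin capture, three washes and Illumina sequencing of the released DNA.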

First: GATGATTGTTCTCCCAGCTGATGAATTCCCGTATTCGAGTAAACAAATTTTCCTAATCTTTCTGTTCAAGCGCCATCTAC
Second: GATGATTGTTCTCCCAGCTGATGAATTATTAGTATCGAGTAAACAAATTTTCCTAATCTTTCTGTTCAAGCGCCATCTAC
The binding signal of the first is lower: 0.957 RPM ratio (pull-down/input) for the first, 1.46 RPM ratio (pull-down/input) for the second.

First: GATGATTGTTCTCCCAGCTGATGAATTTGCGCCTTCGAGTAAACAAATTTTCCTAATCTTTCTGTTCAAGCGCCATCTAC
Second: GATGATTGTTCTCCCAGCTGATGAATTGTTACTGTCGAGTAAACAAATTTTCCTAATCTTTCTGTTCAAGCGCCATCTAC
The binding signal of the first is lower: 1.02 RPM ratio (pull-down/input) for the first, 1.34 RPM ratio (pull-down/input) for the second.

Going from “GATGATTGTTCTCCCAGCTGATGAATTCAAAAGCTCGAGTAAACAAATTTTCCTAATCTTTCTGTTCAAGCGCCATCTAC” to “GATGATTGTTCTCCCAGCTGATGAATTGAGCTGGTCGAGTAAACAAATTTTCCTAATCTTTCTGTTCAAGCGCCATCTAC”, the binding signal falls from 0.896 RPM ratio (pull-down/input) to 0.754 RPM ratio (pull-down/input).

First: GATGATTGTTCTCCCAGCTGATGAATTAGCTCCCTCGAGTAAACAAATTTTCCTAATCTTTCTGTTCAAGCGCCATCTAC
Second: GATGATTGTTCTCCCAGCTGATGAATTGCATATCTCGAGTAAACAAATTTTCCTAATCTTTCTGTTCAAGCGCCATCTAC
The binding signal of the first is lower: 0.772 RPM ratio (pull-down/input) for the first, 1.19 RPM ratio (pull-down/input) for the second.

Compared with “GATGATTGTTCTCCCAGCTGATGAATTTCATTTTTCGAGTAAACAAATTTTCCTAATCTTTCTGTTCAAGCGCCATCTAC”, “GATGATTGTTCTCCCAGCTGATGAATTGACTCGGTCGAGTAAACAAATTTTCCTAATCTTTCTGTTCAAGCGCCATCTAC” is lower in binding signal: 0.973 RPM ratio (pull-down/input) for the first, 0.898 RPM ratio (pull-down/input) for the second.

Compared with “GATGATTGTTCTCCCAGCTGATGAATTGCCCTTCTCGAGTAAACAAATTTTCCTAATCTTTCTGTTCAAGCGCCATCTAC”, “GATGATTGTTCTCCCAGCTGATGAATTCAACAAGTCGAGTAAACAAATTTTCCTAATCTTTCTGTTCAAGCGCCATCTAC” is higher in binding signal: 0.864 RPM ratio (pull-down/input) for the first, 1.07 RPM ratio (pull-down/input) for the second.

First: GATGATTGTTCTCCCAGCTGATGAATTCCCGGCGTCGAGTAAACAAATTTTCCTAATCTTTCTGTTCAAGCGCCATCTAC
Second: GATGATTGTTCTCCCAGCTGATGAATTGTGACCTTCGAGTAAACAAATTTTCCTAATCTTTCTGTTCAAGCGCCATCTAC
The binding signal of the first is lower: 0.756 RPM ratio (pull-down/input) for the first, 1.17 RPM ratio (pull-down/input) for the second.

Compared with “GATGATTGTTCTCCCAGCTGATGAATTCGAGGCATCGAGTAAACAAATTTTCCTAATCTTTCTGTTCAAGCGCCATCTAC”, “GATGATTGTTCTCCCAGCTGATGAATTTAGGACCTCGAGTAAACAAATTTTCCTAATCTTTCTGTTCAAGCGCCATCTAC” is lower in binding signal: 0.964 RPM ratio (pull-down/input) for the first, 0.817 RPM ratio (pull-down/input) for the second.

Compared with “GATGATTGTTCTCCCAGCTGATGAATTAACATTCTCGAGTAAACAAATTTTCCTAATCTTTCTGTTCAAGCGCCATCTAC”, “GATGATTGTTCTCCCAGCTGATGAATTGCAATCCTCGAGTAAACAAATTTTCCTAATCTTTCTGTTCAAGCGCCATCTAC” is higher in binding signal: 0.945 RPM ratio (pull-down/input) for the first, 1.2 RPM ratio (pull-down/input) for the second.
